Measurements: PubChem BioAssay AID540267 (National Center for Advancing Translational Sciences (NCATS), 2011)
Among all 340,000 compounds or so, about 530 (0.16%) were called active. The shares of active, inactive and inconclusive entries below differ from those in the screen. Cut-off read from the data, not from the text of the source: active = activity change below about -80%; inconclusive = between about -30% and that limit; inactive = weaker than that.

assay: Small Molecules that selectively kill Giardia lamblia: qHTS; conditions: Giardia lamblia trophozoite viability; at 7.66 µM; hits give low values;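 note: parasites exposed to compound for two days anaerobically before the ATP read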
Procedure, shortened: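 Anaerobic 48 hrs incubation at 37 deg C of 100 trophozoites/well with test compounds; ATPLite 1-Step luminescence, 15-30 min RT, reports cellular ATP as viability.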
% is set by controls: 0 for no effect and ±100 for the full control effect.

SMILES	activity change
O=c1c2ccccc2nnn1CSc1ncnc2ccccc12	inactive: -10.1%
Cc1[nH]n(S(=O)(=O)c2ccccc2)c(=O)c1N=Nc1cccc(Cl)c1	inconclusive: -52.2% [inhibitor]
COc1ccc(CCNC(=O)CSc2ccsc2[N+](=O)[O-])c(OC)c1	inconclusive: -65.5% [inhibitor]
CC1(C)CC(=O)C2=C(C1)Nc1cc(Cl)ccc1S2	inactive: -2.59%
CCc1ccc(/C=C/C(=O)C2C(=O)c3ccccc3C2=O)cc1	active: -81.7%
Cc1ccc(C(=O)Nc2cc([N+](=O)[O-])ccc2F)s1	inconclusive: -30.9% [inhibitor]
Cc1cc(=O)n2[nH]c(-c3ccc(F)cc3)nc2n1	inconclusive: -37.7% [inhibitor]
CCc1nn(CCCC(=O)NCc2ccc(OC(C)C)cc2)c(=O)c2cc3occc3n12	inactive: 9.56%
O=C(O)C(c1ccccc1)c1ccccc1	inconclusive: -35.9% [inhibitor]
COc1ccc(C(=O)Nc2ccccc2C(=O)NCc2cccnc2)cc1	inactive: -5.83%
CCOC(=O)c1[nH]c2cc(OC)c(OC)cc2c1NC(=O)C(C)N1CCN(Cc2ccccc2)CC1 (stereo not given)	inactive: -4.27%
NC(=O)c1nsc(C(=O)N(Cc2ccco2)C(C(=O)NC2CCCC2)c2ccc(O)cc2)c1N (stereo not given)	inconclusive: -32.2% [inhibitor]
COc1ccc(/C=C/C(=O)c2ccc(C(=O)/C=C/c3ccc(OC)c(OC)c3)cc2)cc1OC	inactive: -13%
Cc1nc2ccccc2c(=O)n1NC(=O)c1cc(Br)ccc1Cl	inconclusive: -33.8% [inhibitor]
Cc1c(-c2ccccc2)n[nH]c1C(=O)NN	inactive: -12.2%
COc1cc(C2NC(=O)NC3=C2C(=O)OC3)cc(OC)c1OC (stereo not given)	inconclusive: -38.6% [inhibitor]
COc1cccc2cc(C(=O)N(C)C)c(=O)oc12	inconclusive: -33% [inhibitor]
O=C(Nc1nccs1)c1ccc(-c2ccc(Cl)cc2)o1	inconclusive: -34.9% [inhibitor]
COc1ccc(NS(=O)(=O)c2ccc3c(c2)CCCN3C(C)=O)cc1	inconclusive: -31.6% [inhibitor]
Cc1ccc(CNC(=O)C2CCC(=O)N(Cc3cccc(C(F)(F)F)c3)C2)o1 (stereo not given)	inactive: -15%
COc1ccc(NC(=O)c2ccc([N+](=O)[O-])s2)c([N+](=O)[O-])c1	inconclusive: -68.4% [inhibitor]
O=C(Nc1cccc(/C=C/c2ccccn2)c1)c1ccc(-n2cncn2)c([N+](=O)[O-])c1	inactive: 3.49%
O=C(COC(=O)C1CC2C=CC1C2)NCc1ccccc1Cl (stereo not given)	inconclusive: -31.1% [inhibitor]
O=C1CC(N2CCN(c3ncccn3)CC2)C(=O)N1CCc1ccccc1 (stereo not given)	inactive: 0.0394%
COc1ccc2[nH]c3c(NCCCN4CCCC4=O)ncnc3c2c1	inactive: 4.36%
Cc1nonc1OCCn1c([N+](=O)[O-])cnc1C	inconclusive: -71.2% [inhibitor]
NC(=O)N/N=C/c1ccc(-c2ccc([N+](=O)[O-])cc2)o1	inactive: 1.6%

SMILES	activity change
CN(C)c1ccc(/C=N/NC(N)=S)cc1[N+](=O)[O-]	inconclusive: -43.5% [inhibitor]
Cc1[nH]n2c(=O)c3c(nc2c1-c1ccc(Cl)cc1)CCC3	inactive: -5.12%
Cc1ccccc1NS(=O)(=O)c1ccc(C(=O)NCC2(N3CCOCC3)CCCCC2)cc1	inconclusive: -35.1% [inhibitor]
Cc1nc(C)c(C(=O)C2=C(O)C(=O)N(CCN(C)C)C2c2ccco2)s1 (stereo not given)	inconclusive: -30.5% [inhibitor]
CCn1c(/C=C/c2ccccc2C)nc2ccccc2c1=O	inconclusive: -30.1% [inhibitor]
CC(=O)Nc1ccc(S(=O)(=O)NCc2nc(-c3ccc(C)cc3)no2)cc1	inconclusive: -31.7% [inhibitor]
CC(C)CC(=O)NC(=S)NNC(=O)c1cccc([N+](=O)[O-])c1	inconclusive: -45% [inhibitor]
CCN1CN(Cc2ccccc2)CNC1=S	inconclusive: -32.2% [inhibitor]
CC1C(=O)C(C)(C)C(=O)OC1c1ccc([N+](=O)[O-])cc1 (stereo not given)	inconclusive: -41.8% [inhibitor]
COc1ccc(Cl)cc1NC(=O)C1CCCN(S(=O)(=O)c2cccc3nonc23)C1 (stereo not given)	inconclusive: -30.2% [inhibitor]
COc1ccc(N2CC(C(=O)N(C)CC(=O)Nc3ccc(Cl)c(C(F)(F)F)c3)CC2=O)c(OC)c1 (stereo not given)	inconclusive: -31.5% [inhibitor]
CCOc1ccc(NC(=O)CCC(=O)NNC(=O)c2ccco2)cc1	inactive: -10.3%
CCOc1ccc(Br)cc1/C(C)=N\NC1=NCCN1	inactive: 2.11%
O=C(NC(=S)Nc1ccc2[nH]c(=O)[nH]c2c1)c1cncc(Br)c1	inactive: -14.5%
CCCCN(C)C(=O)c1ccc2c(c1)N(CC)C(=O)c1ccccc1S2=O (stereo not given)	inconclusive: -30.2% [inhibitor]
Cn1c(=O)n(CC(=O)NCC2CCCO2)c(=O)c2c3c(sc21)CCCC3 (stereo not given)	inactive: -0.828%
COc1cc(N=Nc2c(C)n(C)n(-c3ccccc3)c2=O)ccc1N	inconclusive: -79% [inhibitor]
S=C(NCCc1ccccc1)NCC1CCCO1 (stereo not given)	inconclusive: -31.3% [inhibitor]
Cc1cc(C(=O)COC(=O)c2ccc[nH]c2=O)c(C)n1-c1ccccc1	inconclusive: -44.8% [inhibitor]
CCOc1cc(/C=C2\CN(CC)C/C(=C\c3ccc(O)c(OCC)c3)C2=O)ccc1O	inconclusive: -32.6% [inhibitor]
CN(CC(=O)Nc1ccc(N2CCOCC2)cc1)CC(=O)Nc1ccc([N+](=O)[O-])cc1Br	inactive: 8.54%
COc1ccc(C2/C=C\CN(C(=O)C3CCCC3)C(C)C(=O)N2Cc2ccc(F)cc2)cc1 (stereo not given)	inactive: -26.9%
Cc1ccc(N(CN2CCCC2=O)C(=O)c2ccccc2)cc1	inactive: -2.37%
Cc1ccc(C(=O)Nc2cccc3ccccc23)cc1	inconclusive: -36.8% [inhibitor]
CCCC1O[C@@H]2C[C@H]3[C@@H]4CCC5=CC(=O)C=C[C@]5(C)[C@H]4[C@@H](O)C[C@]3(C)[C@]2(C(=O)CO)O1 (stereo not given in full)	inconclusive: -35.8% [inhibitor]
O=C(Nc1ccncc1)c1c(F)c(F)c(F)c(F)c1F	inconclusive: -32.6% [inhibitor]
NC(=O)CC(NC(=O)Cc1cccc2ccccc12)c1ccc(NC2CCCCCCC2)c([N+](=O)[O-])c1 (stereo not given)	inconclusive: -32.4% [inhibitor]

SMILES	activity change
CCOC(=O)c1c(-c2ccccc2)oc2ccc(OC)cc12	inconclusive: -31.2% [inhibitor]
COc1cccc(C(=O)C2=NN(C(C)=O)CC2c2ccco2)c1 (stereo not given)	inconclusive: -43.7% [inhibitor]
Cc1ccc(Nc2c(-c3ccc(C)o3)nc3ccccn23)cc1	inactive: 12.7%
CC(C)CC(=O)Nc1ncc([N+](=O)[O-])s1	active: -93%
CC1CC(NC(=O)c2c(O)nc3sccn3c2=O)CC(C)(C)C1 (stereo not given)	inconclusive: -41.3% [inhibitor]
Clc1ccc(-c2n[nH]c3c2CCCC3)cc1	inactive: 13.3%
CN1C2C=C3C(C#N)=C(N)C(C#N)(C#N)[C@H](c4c(F)cccc4F)[C@H]3C1CC2 (stereo not given in full)	inactive: 5.79%
S=C1NCC(c2ccccc2)S1 (stereo not given)	inactive: -2.38%
COc1ccc(CNCC(O)(c2ccccc2)c2ccc(F)cc2)cc1 (stereo not given)	inactive: 12.7%
OCCN(CC#CC(O)(c1ccccc1)C1CCCCC1)CCO (stereo not given)	inconclusive: -31.2% [inhibitor]
Cc1ccccc1NC(=S)N(CCN(C)C)C(C)c1ccccn1 (stereo not given)	inactive: 8.09%
O=C(O)c1ccccc1C=NN=C1c2ccccc2-c2ccccc21	inactive: 15.1%
NC(=O)C1CCN(c2cc(Cl)ccc2[N+](=O)[O-])CC1	inconclusive: -48.9% [inhibitor]
CCCN1CNc2c(c(=O)[nH]c(=S)n2CCc2ccc(OC)cc2OC)C1	inconclusive: -30.7% [inhibitor]
CN(C)CCCn1cnc2c(c1=N)C(c1ccccc1)c1ccc3ccccc3c1O2 (stereo not given)	inconclusive: -47.3% [inhibitor]
COCCn1c(=O)c2ccccc2c2ccccc2c1=O	inconclusive: -31.5% [inhibitor]
Cc1ccc(NC(=O)CCNS(=O)(=O)c2ccc3[nH]c(=O)oc3c2)c(C)c1	inconclusive: -33.4% [inhibitor]
CN(CC(=O)Nc1ccc(F)cc1)CC(=O)N1CCCCC1	inconclusive: -32% [inhibitor]
C/C(=N\Nc1ncc(Cl)cc1Cl)c1ccccn1	inactive: -28.3%
C/C(=N\NC(=O)CNC(=O)c1cccs1)c1ccc(Cl)c(Cl)c1	inactive: -10.4%
Cc1ccnc(NC(=O)/C=C/c2cccs2)c1	inconclusive: -34.4% [inhibitor]
COc1ccc(Cl)cc1N1C(=O)C2CCCN2C1c1ccc(F)cc1 (stereo not given)	inconclusive: -35.9% [inhibitor]
COCc1nnc(NC(=O)c2ccc(NC(=O)C(C)C)cc2)s1	inconclusive: -30.5% [inhibitor]
Cc1ccn2cc(-c3ccc(Br)cc3)nc2c1	inconclusive: -63.1% [inhibitor]
CCn1c(C(Cc2ccccc2)NC(=O)COC)nc2ccccc21 (stereo not given)	inconclusive: -36.3% [inhibitor]
Cc1cc(Br)ccc1NC(=O)CCS(=O)(=O)c1cccc2nonc12	inconclusive: -32.9% [inhibitor]
